The values that follow come from publication PMC7819943, “Rice protein-binding microarrays: a tool to detect cis-acting elements near promoter regions in rice”.

Some of the results follow.

This experiment deals with T1, OsWOX13 (Oryza sativa, UniProt Q5QMM3 1-267).
T1 sequence: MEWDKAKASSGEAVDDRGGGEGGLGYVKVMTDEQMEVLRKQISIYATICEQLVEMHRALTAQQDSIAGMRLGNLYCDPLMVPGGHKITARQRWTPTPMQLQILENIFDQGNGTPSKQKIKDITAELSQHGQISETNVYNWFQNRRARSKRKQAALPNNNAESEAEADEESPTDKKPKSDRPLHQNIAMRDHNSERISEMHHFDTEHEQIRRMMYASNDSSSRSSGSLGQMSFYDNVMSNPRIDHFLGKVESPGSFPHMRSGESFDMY
Put plainly: protein-binding microarray (RPBM); PBS, 2% BSA, 51.3 ng/ul salmon testes DNA, 50 uM zinc acetate, 200 nM TF, 25 C, 1 h; high values mean tight binding. The following applies: protein: recombinant; tags: N-terminal polyhistidine and DsRed monomer fusion (pET32a); label: CyDye5-dUTP incorporated in the synthesized complementary strand; 3' TTTTT single-stranded linker to array surface; dsDNA, one strand shown. Summed up: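 The binding signal is fluorescence intensity per array feature (arbitrary units). Readings came from an Axon 4000B scanner after a washed, 2% BSA-blocked, double-stranded custom Agilent array had been incubated for 1 h at 25 °C with 200 nM protein and 50 µM zinc acetate. The protein was a Ni–NTA-purified transcription factor fused N-terminally to polyhistidine and DsRed, expressed in E. coli BL21-CodonPlus.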
For “GCCAATGATTGCGACGATATTAGCATGTTATTCCCAAGGTCGGAGTCACCTAGTGCAG”, the binding signal was 50400 fluorescence intensity (a.u.). The result for “TCGTGACTGTTCAGATTTGTGGTATTAGGATATGTTATATCGGAGTCACCTAGTGCAG” reads 10400 fluorescence intensity (a.u.); that for “AAGACTGGCATTACAATTAATCAATCTTAACCCACAGCATCGGAGTCACCTAGTGCAG”, 26100 fluorescence intensity (a.u.); that for “TTCCGGACGTGTGATTGCGATGAGACGTGTTGCAATATCCCGGAGTCACCTAGTGCAG”, 7260 fluorescence intensity (a.u.). For “ATTTTCAGACAATTATTGGCACCACCAGCCTCATCAACGGCGGAGTCACCTAGTGCAG” the value was 3670 fluorescence intensity (a.u.); for “CATGATGTAGATTTGTAGCTAGCTATAGCACAGACTCCAACGGAGTCACCTAGTGCAG”, 3760 fluorescence intensity (a.u.). For “TCAAATTTTATTCGTAAAGTTGACTGCAATAGTTTTGTATCGGAGTCACCTAGTGCAG” the value was 3460 fluorescence intensity (a.u.); for “CCCTAATTTTGCAGAACTTTTGGATGGGATTTAAATTCTCCGGAGTCACCTAGTGCAG”, 12100 fluorescence intensity (a.u.); for “GATGGTGCTAATTTGAGAGTTCAACTGACATATCTACCAACGGAGTCACCTAGTGCAG”, 3510 fluorescence intensity (a.u.). For “GTACGGAAATTTCCAAAGATTAGCTGAAAATTTTGAAGTACGGAGTCACCTAGTGCAG”, the binding signal is 4440 fluorescence intensity (a.u.). For “GTGGTATTAACGTATAATTAATTGAGTTTTAATTATTACACGGAGTCACCTAGTGCAG” the value was 24000 fluorescence intensity (a.u.); for “AATTAATGGCAGAATTTACCGATAATGGCCGTCTTTAGATCGGAGTCACCTAGTGCAG”, 6100 fluorescence intensity (a.u.). For “CCTAGCAAATTGATCCCTTTCAAGAAAGCCCTGTTTGAACCGGAGTCACCTAGTGCAG” the value was 4960 fluorescence intensity (a.u.). The result for “TATGATTTATAAATTAATGGATTTAAAGTTTTAAGTTAATCGGAGTCACCTAGTGCAG” reads 43900 fluorescence intensity (a.u.); that for “CAGAATCTATAATTTGTTTTGTTATTAGACTATGTTATATCGGAGTCACCTAGTGCAG”, 6000 fluorescence intensity (a.u.); that for “ACTATAGTAATTTGTCTCAGACAATTGGTAAAGATTGTGGCGGAGTCACCTAGTGCAG”, 8100 fluorescence intensity (a.u.). Take “TATCAAATCTGATTTGGTAGATTTATTTAAGGATTTTCATCGGAGTCACCTAGTGCAG”: the binding signal was 3240 fluorescence intensity (a.u.). The result for “ACCATCATCAATTGATAGTTCTTGTTTCTCTAGTAGTAAGCGGAGTCACCTAGTGCAG” reads 9360 fluorescence intensity (a.u.); that for “TGGACAACAATTCTTGATTGAATTTAATTAACGGATAACGCGGAGTCACCTAGTGCAG”, 28000 fluorescence intensity (a.u.). The result for “AGCTAATAATTACTAATTACTAAGTAATACTTCCTCTGTTCGGAGTCACCTAGTGCAG” reads 41700 fluorescence intensity (a.u.); that for “AATATGATTGGATCGAGAAGCTCGTTGGCTCCTTTATCCACGGAGTCACCTAGTGCAG”, 42500 fluorescence intensity (a.u.); that for “CGACGACTCAATTCATTTATTATAATAAATGAATTAACCCCGGAGTCACCTAGTGCAG”, 7030 fluorescence intensity (a.u.). The result for “TGAATTTTACAAAATCAACATCCAATCATTTTCATTCACACGGAGTCACCTAGTGCAG” reads 6080 fluorescence intensity (a.u.). On to “TCAAAGTGATTGGTGACACTCTACACAACACACAGTTGAACGGAGTCACCTAGTGCAG”, for which the binding signal was 28400 fluorescence intensity (a.u.).

Turning to “AACTAGTTAGGCTCCTTATGATTGAATCTGTTTACCCGGACGGAGTCACCTAGTGCAG”, the binding signal was 14100 fluorescence intensity (a.u.).

In the case of “AAATAACAAATTTGACTGTGAATATACGTATACTAGTTAGCGGAGTCACCTAGTGCAG”, the binding signal is 19300 fluorescence intensity (a.u.). As to “CAATATTGATTTTGTCTAATAAGTAGTTATTGAACTGAGTCGGAGTCACCTAGTGCAG”, the binding signal was 35800 fluorescence intensity (a.u.). For “ACTGCATCAAAATTAGATTTTACAACTACTCCCTCCGTCTCGGAGTCACCTAGTGCAG” the value was 3160 fluorescence intensity (a.u.); for “CCCCACATGATTTGGATGGATCCCTTGATCCGATCACGAACGGAGTCACCTAGTGCAG”, 9660 ± 457 fluorescence intensity (a.u.); for “CTAGATTTAACTTTTAGTCTCATTTGATAGGACTCCAACTCGGAGTCACCTAGTGCAG”, 11100 fluorescence intensity (a.u.). The result for “TTTACCCACATTGTTTTGATTGCTAATAAACCGTTACGACCGGAGTCACCTAGTGCAG” reads 8300 fluorescence intensity (a.u.); that for “ATTTAATTAGTGGATAGAATTTAGGTGCACCAAATGCTGGCGGAGTCACCTAGTGCAG”, 43000 fluorescence intensity (a.u.). The result for “TTAATTATACTATAATATACTACCTCAATGCATGAATGTACGGAGTCACCTAGTGCAG” reads 9580 fluorescence intensity (a.u.). With “AGTCAATTTATTGGTGAATTAGAATCTACGGAAAAGGGGACGGAGTCACCTAGTGCAG”, the binding signal is 15400 fluorescence intensity (a.u.). The result for “TTAGATTGGGACAGTACGTAGGAATTGGTTGATTTCCGGGCGGAGTCACCTAGTGCAG” reads 16300 fluorescence intensity (a.u.); that for “GGTTGTGTTCTTGTTGGCGAGGAGGAGAGAGGGGTGGGGTCGGAGTCACCTAGTGCAG”, 4540 fluorescence intensity (a.u.); that for “AGTCAATCGTGCCAGTCTGACTCGAATCGTCGGTCGTTCTCGGAGTCACCTAGTGCAG”, 3400 fluorescence intensity (a.u.).

In the case of “AATAAATCATATGCATAATAAGCGAAACAATGGGCTGTCGCGGAGTCACCTAGTGCAG”, the binding signal is 4910 fluorescence intensity (a.u.). The result for “AAAGATTAGAACATTCAGCTAAGTGTCTTCCTGCTGATATCGGAGTCACCTAGTGCAG” reads 5320 fluorescence intensity (a.u.); that for “ACATGAACATATATAGATTGACATATAGTTTAGCAGTTCACGGAGTCACCTAGTGCAG”, 18300 fluorescence intensity (a.u.); that for “TTAAATTTGCAAAACAAATTTTGAAAACTTTCAATTCAGACGGAGTCACCTAGTGCAG”, 15000 fluorescence intensity (a.u.). The result for “TTACTCGTCAATCCACCGATTACAGCTATCTCAAACGGAGCGGAGTCACCTAGTGCAG” reads 8630 fluorescence intensity (a.u.).
